The list shows a part of the results.

The chains are these.
B1: chrX:8528873:8532994:-|three_prime_utr|ENSG00000011201|control|control|control (ssRNA)
RNA: GGGAGUUCUACAGUCCGACGAUCAUGCACACUUCCAGAGGCAGUGGGAACUGCUCAGAGGCCCGGACUCUCCUAUGUGACUUUAGUGCAGGAAGAACUUCUGUCAAUCAUGGACGCAUCUGGAGACAAGUGAGAAACAGUAGACAACAGAGGAUUGAGCAUCA
B2: ENSG00000070961:be:win_651|CDS|ENSG00000070961|bound_else_gene|NA|bound_elsewhere_windowed (ssRNA)
RNA: GGGAGUUCUACAGUCCGACGAUCAGUGAAAUAUGGUGAUCUUCUUCCAGCUGACGGCAUACUUAUUCAAGGCAACGAUCUUAAAAUUGAUGAAAGCUCAUUGACUGGUGAAUCAGAUCAUGUUAAAAAGUCUUUAGAUAAGGACAACAGAGGAUUGAGCAUCA
B3: chr1:192811693:192811799:+|3pUTR|ENSG00000116741|unk|total|mutant (ssRNA)
RNA: GGGAGUUCUACAGUCCGACGAUCCUUGAAUUCAGCCUGGGUGUUCAGGAAACAUCACUCAGAACUAUUGAUUCAAAGUUGGGCCGUGAAUCAGGAAGCCAGUAACUGACCCGGAGAAGCUGGUAUCAGAACAGCUUCCCUCACCAACAGAGGAUUGAGCAUCA
B4: chr10:110887682:110887783:+|CDS|ENSG00000150593|msi1|FALSE|bound_elsewhere (ssRNA)
RNA: GGGAGUUCUACAGUCCGACGAUCGUUAAGAGAUUUAAAUCUUGGUGAAAUGAAAAGUGGAGUACCAGUGUUGGCAGUAUCCUUAGCAUUGGAGGGGAAGGCUAGUCAUAGAGAGAUGACAUCUAAGCUUCUUUCUGACCUUUGCAACAGAGGAUUGAGCAUCA
B5: chr1:206732925:206733026:+|3pUTR|ENSG00000162889|msi1|FALSE|unique (ssRNA)
RNA: GGGAGUUCUACAGUCCGACGAUCAAGUGAGCAAGGUGCUCUUGAACCUGUGCUCAUUUUGCAAUUUUAUCAGUAAUUUGACUUAGAGUUUUUACGAAACCUCUUUUGUUGUCCUUGCCCCACUCCUCUCCACCAGACGCCUUCCAACAGAGGAUUGAGCAUCA
B6: chr12:10081268:10081413:-|three_prime_utr|ENSG00000150048|control|control|control (ssRNA)
RNA: GGGAGUUCUACAGUCCGACGAUCUCAGUACUACCAGCUCUCCAAUACUGGUCAAGACACCAUUUCUCAAAUGGAAGAAAGAUUAGGAAAUACGUCCCAAGAGUUGCAAUCUCUUCAAGUCCAGAAUAUAAAGCUUGCAGGAAGCAACAGAGGAUUGAGCAUCA
B7: chr15:39595431:39595532:+|3pUTR|ENSG00000137801|msi1_unk|total|mutant (ssRNA)
RNA: GGGAGUUCUACAGUCCGACGAUCCCCCAGGAUCACUUCUCCUUGGCUUCCUUCUUUUCUGUGCUUGCAUCAGUGUGGACUCCCCGAACGUGCGACCUGCCUCAAGAAAAUGCAGUUUUCAAAAACAGACUCAGCAUUCAGCCUCAACAGAGGAUUGAGCAUCA
B8: chr4:138169334:138169435:-|3pUTR|ENSG00000151012|msi1|FALSE|unique (ssRNA)
RNA: GGGAGUUCUACAGUCCGACGAUCCCAUUUCACGCAGAAAAAAAGUCAGCCAGUAAUUAAGAAAAAAAGUGAUGGAGAUUAAGUAGUAUUUUGGCUUAUUUUUAGGACUCAUCAUGAGAAGACACAGUUCCUUUAAUCAGGAAACAACAGAGGAUUGAGCAUCA
B9: chrX:150470157:150470258:+|CDS|ENSG00000013619|unk|FALSE|unique (ssRNA)
RNA: GGGAGUUCUACAGUCCGACGAUCUCCAAAUGAGCUAGAUCUUGAGAAGAUACUGGGGACGAAGCCAGAAGAGCCACUGGUUUUAGAUCAUCCCCAGGCAACCCUAAGCACAACUCCCAAGCCUUCGGUUCAGAUGUCACACUUCAACAGAGGAUUGAGCAUCA
B10: chr1:42696720:42696786:+|CDS|ENSG00000065978|msi1_unk|total|mutant (ssRNA)
RNA: GGGAGUUCUACAGUCCGACGAUCCCAGUUCAAGGCAGUAAAUAUGCAGCAGACCGUAACCAUUACCGACGCUAUCCACGUCGCCGGGGUCCUCCACGCAAUUACCAGCAAAAUUACCAGAACCGUGAGAGUGGGGAAAAGAACCAACAGAGGAUUGAGCAUCA
B11: ENSG00000130818:stop:overlap|stop_codon|ENSG00000130818|stop_codon|NA|stop_codon (ssRNA)
RNA: GGGAGUUCUACAGUCCGACGAUCAGCAAUGCGGGAAAGCUUACAGUCAUCCCCGUUCACUUCGAAGACAUGAACAAAUUCACUAGUGAGAAACUGUCCAUGUAAUAAAUGUGGGAAAGCUCUCAUUUGUUCCAGUUCACUUUACAACAGAGGAUUGAGCAUCA
B12: ENSG00000070961:be:win_3201|CDS|ENSG00000070961|bound_else_gene|NA|bound_elsewhere_windowed (ssRNA)
RNA: GGGAGUUCUACAGUCCGACGAUCAUUCCUCAAAGAAGCUGGUCAUGGAACACAAAAGGAAGAAAUACCUGAGGAGGAAUUAGCAGAGGAUGUUGAAGAGAUUGAUCACGCUGAAAGGGAGUUGCGGCGUGGCCAAAUCUUGUGCAACAGAGGAUUGAGCAUCA
B13: chr5:96760809:96763199:-|three_prime_utr|ENSG00000164307|control|control|control (ssRNA)
RNA: GGGAGUUCUACAGUCCGACGAUCAGAAUCUCAGACUACAGCACUAAAUAUGCUUUGAUGCUACAUCAAACGGAAUGGAAGCAUAGCUGACUUCGCUAAAGUUACUUCAUCUCCAUCUAGCAAAUGAGGCACUGUUCUCAACCACAACAGAGGAUUGAGCAUCA
B14: chr4:140550230:140550341:+|CDS|ENSG00000179387|unk|FALSE|unique (ssRNA)
RNA: GGGAGUUCUACAGUCCGACGAUCGAAUUUGACAAGUUUUGGUUUGAAGAAGAACCAGAAAGCAUUAUGUAUUUCAAUUUGUAUAGAGAGAAGUUUCAUGAAAAGAUUAAAGGACUUUUACUGGAUUGUAAUGUAGCACUUACUCAACAGAGGAUUGAGCAUCA

The assay addresses MSI1 full-length (mouse, UniProt Q61474 1-362). Put plainly: nsRBNS (natural sequence RNA bind-n-seq); RBNS binding buffer (assumed for nsRBNS): 25 mM Tris pH 7.5, 150 mM KCl, 3 mM MgCl2, 0.01% Triton X-100, 500 ug/ml BSA, 20 U/ml SUPERase-In, 4 C; UNK is unkempt and MSI1 is Musashi-1; names of the RNAs are library labels; protein concentration not given here; high values mean tight binding.
Chain of UniProt Q61474 (Q61474 whole entry): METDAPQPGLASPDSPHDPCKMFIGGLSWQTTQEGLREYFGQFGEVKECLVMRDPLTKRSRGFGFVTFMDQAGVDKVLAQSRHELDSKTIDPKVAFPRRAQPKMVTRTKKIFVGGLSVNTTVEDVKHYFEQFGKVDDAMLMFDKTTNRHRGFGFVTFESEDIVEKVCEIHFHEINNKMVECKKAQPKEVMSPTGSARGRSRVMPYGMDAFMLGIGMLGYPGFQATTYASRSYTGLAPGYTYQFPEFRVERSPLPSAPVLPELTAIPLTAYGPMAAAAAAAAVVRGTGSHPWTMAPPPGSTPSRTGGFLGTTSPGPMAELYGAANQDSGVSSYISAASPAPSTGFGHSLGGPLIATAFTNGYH
Molecule B1 registered a binding signal of 0.626 enrichment R. In the case of B2, the binding signal turned out to be 0.444 enrichment R. For B3 the value was 0.262 enrichment R. B4 displayed a binding signal of 0.672 enrichment R. Turning to B5, the binding signal came out at 0.415 enrichment R. For B6 the value was 0.335 enrichment R; for B7, 0.46 enrichment R; for B8, 19.3 enrichment R. Then B9, with 0.493 enrichment R. For B10, the binding signal came to 0.428 enrichment R. For B11 the value was 2.07 enrichment R; for B12, 0.445 enrichment R. For B13 the value was 0.299 enrichment R. Then B14, with 1.57 enrichment R.

These data come from publication PMC12136788.
